Laboratory results taken from the supplement of paper PMC10037445.
Where “and” joins values, the source holds several entries; their conditions need not be identical. Equal entries are not always repeated. In all, about 2,900 compounds were measured (“NF-kB SEAP reporter activity, fold change vs agonist alone”: median about 0.99, highest 2% from about 2.6 on). The list shows a part of the results.

Experiments:
RAW-Dual [1] = assay: NF-kB SEAP reporter activity, fold change vs agonist alone; cytotoxicity flag (confluency mask): not cytotoxic; higher = enhanced NF-kB activity
How it was run: (§1)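 Supernatant from RAW-Dual macrophages was read after 20 hours for IRF by QuantiLuc luminescence and for NF-κB by QuantiBlue absorbance at 620 nm. The cells (50,000 cells/well in DMEM, 384-well plates, 37 °C, 5% CO2) had received 50 nL of library stock by pin tool and, 1 h later, a PRR agonist. Reporter activity is expressed relative to agonist-alone wells as fold change, and wells were flagged cytotoxic if IncuCyte confluency was under 70% of agonist controls in both mask sets.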

RAW-Dual [2] = assay: NF-kB SEAP reporter activity, fold change vs agonist alone; higher = enhanced NF-kB activity; conditions: library stock concentration (final ~1000-fold dilution): 10 mM
How it was run: as §1

RAW-Dual [3] = assay: NF-kB SEAP reporter activity, fold change vs agonist alone; cytotoxicity flag (confluency mask): cytotoxic (confluency <70% of control); higher = enhanced NF-kB activity
How it was run: as §1

[4] = agonist: ODN 1826 (TLR9) 0.5 ug/mL
[5] = agonist: Pam2CSK4 (TLR2/6) 0.1 ug/mL
[6] = agonist: Pam3CSK4 (TLR2/1) 0.1 ug/mL
[7] = cytotoxicity flag (confluency mask): not cytotoxic, agonist: Imiquimod (TLR7) […]
[8] = cytotoxicity flag (confluency mask): not cytotoxic, agonist: MPLA (TLR4) […]

O=C(O)C(Cc1c[nH]c2ccccc12)N1C(=O)c2ccccc2C1=O (stereo not drawn) (library stock concentration (final ~1000-fold dilution): 10 mM)
NF-kB SEAP reporter activity (RAW-Dual [1]; agonist: LPS (TLR4) 0.1 ug/mL): 1.15 | NF-kB SEAP reporter activity (RAW-Dual [1]; [4]): 1.1 | NF-kB SEAP reporter activity (RAW-Dual [1]; [5]): 1.1 | NF-kB SEAP reporter activity (RAW-Dual [1]; [6]): 1.09

CCc1ccc(Cc2ccc3c(c2)[C@]2(OC3)O[C@H](CO)[C@@H](O)[C@H](O)[C@H]2O)cc1
NF-kB SEAP reporter activity (RAW-Dual [2]; [7]): 0.807 | NF-kB SEAP reporter activity (RAW-Dual [2]; [8]): 1.17

CCc1ccc(Cc2ccc3c(c2)[C@]2(OC3)O[C@H](CO)[C@@H](O)[C@H](O)[C@H]2O)cc1 (library stock concentration (final ~1000-fold dilution): 10 mM)
NF-kB SEAP reporter activity (RAW-Dual [1]; agonist: LPS (TLR4) 0.1 ug/mL): 1.22 | NF-kB SEAP reporter activity (RAW-Dual [1]; [4]): 0.965 | NF-kB SEAP reporter activity (RAW-Dual [1]; [5]): 0.973 | NF-kB SEAP reporter activity (RAW-Dual [1]; [6]): 1.13

CCOC(=O)C1=C(C)NC(C)=C(C(=O)OCC)C1c1ccccc1/C=C/C(=O)OC(C)(C)C (library stock concentration (final ~1000-fold dilution): 10 mM)
NF-kB SEAP reporter activity (RAW-Dual [1]; agonist: LPS (TLR4) 0.1 ug/mL): 1.43 and 0.652 | NF-kB SEAP reporter activity (RAW-Dual [1]; [4]): 1.01 and 0.861 | NF-kB SEAP reporter activity (RAW-Dual [1]; [5]): 0.569 and 0.361 | NF-kB SEAP reporter activity (RAW-Dual [1]; [6]): 0.984 and 0.45

CCOC(=O)NC1CCC2C(C1)CC1C(=O)OC(C)C1C2/C=C/c1ccc(-c2cccc(F)c2)cn1 (stereo not drawn) (library stock concentration (final ~1000-fold dilution): 10 mM)
NF-kB SEAP reporter activity (RAW-Dual [1]; agonist: LPS (TLR4) 0.1 ug/mL): 0.824 | NF-kB SEAP reporter activity (RAW-Dual [1]; [4]): 0.243 | NF-kB SEAP reporter activity (RAW-Dual [1]; [5]): 0.212 | NF-kB SEAP reporter activity (RAW-Dual [1]; [6]): 0.158

CCOC(=O)NC1CCC2C(C1)CC1C(=O)OC(C)C1C2/C=C/c1ccc(-c2cccc(F)c2)cn1 (stereo not drawn)
NF-kB SEAP reporter activity (RAW-Dual [2]; [7]): 0.145 | NF-kB SEAP reporter activity (RAW-Dual [2]; [8]): 0.289

CC#CC(=O)Nc1ccc2ncnc(Nc3cccc(Br)c3)c2c1
NF-kB SEAP reporter activity (RAW-Dual [2]; [7]): 1.15 | NF-kB SEAP reporter activity (RAW-Dual [2]; [8]): 0.437

CC#CC(=O)Nc1ccc2ncnc(Nc3cccc(Br)c3)c2c1 (library stock concentration (final ~1000-fold dilution): 10 mM)
NF-kB SEAP reporter activity (RAW-Dual [1]; agonist: LPS (TLR4) 0.1 ug/mL): 0.28 | NF-kB SEAP reporter activity (RAW-Dual [1]; [4]): 0.399 | NF-kB SEAP reporter activity (RAW-Dual [1]; [5]): 0.341 | NF-kB SEAP reporter activity (RAW-Dual [1]; [6]): 0.369

CNC1CCC(c2ccc(Cl)c(Cl)c2)c2ccccc21.Cl (stereo not drawn)
NF-kB SEAP reporter activity (RAW-Dual [2]; cytotoxicity flag (confluency mask): cytotoxic (confluency <70% of control), agonist: Imiquimod (TLR7) […]): 1.64 | NF-kB SEAP reporter activity (RAW-Dual [2]; cytotoxicity flag (confluency mask): cytotoxic (confluency <70% of control), agonist: MPLA (TLR4) […]): 1.56

CNC1CCC(c2ccc(Cl)c(Cl)c2)c2ccccc21.Cl (stereo not drawn) (library stock concentration (final ~1000-fold dilution): 10 mM)
NF-kB SEAP reporter activity (RAW-Dual [3]; agonist: LPS (TLR4) 0.1 ug/mL): 0.879 | NF-kB SEAP reporter activity (RAW-Dual [3]; [4]): 0.405 | NF-kB SEAP reporter activity (RAW-Dual [3]; [5]): 0.42 | NF-kB SEAP reporter activity (RAW-Dual [3]; [6]): 0.484

CCC(C(C)O)n1ncn(-c2ccc(N3CCN(c4ccc(OCC5COC(Cn6cncn6)(c6ccc(F)cc6F)C5)cc4)CC3)cc2)c1=O (stereo not drawn)
NF-kB SEAP reporter activity (RAW-Dual [2]; [7]): 1.9 | NF-kB SEAP reporter activity (RAW-Dual [2]; [8]): 1.87

CCC(C(C)O)n1ncn(-c2ccc(N3CCN(c4ccc(OCC5COC(Cn6cncn6)(c6ccc(F)cc6F)C5)cc4)CC3)cc2)c1=O (stereo not drawn) (library stock concentration (final ~1000-fold dilution): 10 mM)
NF-kB SEAP reporter activity (RAW-Dual [1]; agonist: LPS (TLR4) 0.1 ug/mL): 1.39 | NF-kB SEAP reporter activity (RAW-Dual [1]; [4]): 2.48 | NF-kB SEAP reporter activity (RAW-Dual [1]; [5]): 1.07 | NF-kB SEAP reporter activity (RAW-Dual [1]; [6]): 0.999
